Reference: PubChem BioAssay AID1645882 (National Center for Advancing Translational Sciences (NCATS), 2021)
Screen size: about 16,000 compounds; about 120 (0.75%) were called active. Not shown: some 4% with an inconclusive outcome. The call rests on the fitted dose curve; in most records, active means well fitted inhibition curve with a large enough effect; inconclusive means small, poorly fitted or top-dose-only effect; inactive means no such curve, though single readings can be large or run the other way. Some of the results follow.

Target: Rap guanine nucleotide exchange factor 3 (Homo sapiens) (UniProt O95398)
Test: Validation qHTS for antagonist of cAMP-regulated guanine nucleotide exchange factor 3 (EPAC1);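 further: plate controls were DMSO for no effect and ATA control for full effect; nearly all actives have a fitted effect of over 75% in size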
Conditions: EPAC1 Rap1B-BODIPY-GDP exchange, fluorescence; series mostly up to 150 µM; activity change, negative = inhibition: at the top concentration
Procedure, shortened: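 Nucleotide exchange followed as fluorescence loss when BODIPY-GDP leaves Rap1B (480 nm excitation, 540 nm emission), read at 5 min intervals over 30 min. Reaction: 100 nM EPAC1, 250 nM RAP1B-BODIPY-GDP, 50 uM GDP; ATA and DMSO define normalization.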

Chain of UniProt O95398 (O95398 whole entry, looked up): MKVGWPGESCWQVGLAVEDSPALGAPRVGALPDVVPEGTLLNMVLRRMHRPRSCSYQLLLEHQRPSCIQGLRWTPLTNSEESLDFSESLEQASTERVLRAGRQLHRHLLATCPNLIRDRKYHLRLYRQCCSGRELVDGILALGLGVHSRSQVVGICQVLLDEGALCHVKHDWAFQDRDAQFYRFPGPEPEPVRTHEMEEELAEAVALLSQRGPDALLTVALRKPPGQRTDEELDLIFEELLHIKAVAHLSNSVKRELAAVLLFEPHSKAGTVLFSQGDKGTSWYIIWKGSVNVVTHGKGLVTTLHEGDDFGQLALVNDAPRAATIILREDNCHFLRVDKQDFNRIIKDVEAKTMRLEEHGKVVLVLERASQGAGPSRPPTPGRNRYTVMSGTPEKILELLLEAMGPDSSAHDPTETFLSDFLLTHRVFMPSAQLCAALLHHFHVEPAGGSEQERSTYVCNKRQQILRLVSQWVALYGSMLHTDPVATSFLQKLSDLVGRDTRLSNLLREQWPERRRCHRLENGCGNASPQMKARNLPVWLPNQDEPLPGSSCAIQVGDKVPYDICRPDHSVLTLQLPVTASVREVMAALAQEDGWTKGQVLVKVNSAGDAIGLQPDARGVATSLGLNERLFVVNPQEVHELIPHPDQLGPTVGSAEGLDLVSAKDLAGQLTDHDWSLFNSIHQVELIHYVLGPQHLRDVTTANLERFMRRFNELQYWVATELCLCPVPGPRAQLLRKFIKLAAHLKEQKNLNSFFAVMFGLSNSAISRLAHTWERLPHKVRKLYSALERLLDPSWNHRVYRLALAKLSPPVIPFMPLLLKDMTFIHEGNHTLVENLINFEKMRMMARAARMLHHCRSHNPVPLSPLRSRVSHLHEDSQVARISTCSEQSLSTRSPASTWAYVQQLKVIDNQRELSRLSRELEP

Structure (SMILES)	activity change, negative = inhibition
CCN1C(=O)c2ccccc2C1Nc1ccc(OCCN2CCCCC2)cc1 (stereo unspecified)	inactive: 38.2%
Cc1ncc(CO)c(C=O)c1O	inactive
COc1ccc(-c2nc3cnc(N4CCN(C)CC4)nc3n(Cc3cccc(OC)c3)c2=O)cc1	inactive: 9.41%
COc1ncc2nc(-c3cn(C)c4ccccc34)c(=O)n(CCc3ccccc3)c2n1	inactive: 2.57%
CN(C)c1ccc(N=NS(=O)(=O)O)cc1	inactive: -12.6% [at 320 µM]
CC(C)(C)[C@H]1CCC(=O)N([C@H](CSc2ccccc2)Cc2ccccc2)CC1	inactive: -6.24%
COc1ccccc1CN1CCC2(CC1)CCN(C(C)=O)CC2	inactive: 5%
Clc1cccc(Cl)c1NC1=NCCN1	inactive
CC(=O)NCCNc1cc(-c2ccccc2CN(C)C)ncn1	inactive: 5.35%
Cn1cccc1C(=O)N1CCC2(CCN(C(=O)Nc3ccccc3)CC2)CC1	inactive: 10%
CN(C)S(=O)(=O)c1ccc2c(c1)/C(=C/c1cc3c([nH]1)CCCC3)C(=O)N2	inactive: 37.6% [at 75.8 µM]
O=C1[C@H]2CCCC[C@H]2C(=O)N1CCCCN1CCN(c2nsc3ccccc23)CC1	inactive: 25.7%
C[C@]12C=CC(=O)N[C@@H]1CC[C@@H]1[C@@H]2CC[C@]2(C)[C@@H](C(=O)Nc3cc(C(F)(F)F)ccc3C(F)(F)F)CC[C@@H]12	inactive: 25%
CC(C)C[C@@H](CO)N1CCNCCC1=O	inactive: 3.35%
Nc1ccn([C@H]2C[C@H](O)[C@@H](CO)O2)c(=O)n1	inactive: 13.8%
Cc1oc(-c2ccccc2NC(=O)C2CCCO2)nc1CNC(=O)c1cc(F)c(F)cc1F (stereo unspecified)	inactive: 11.8%
O=C(O)CN(CCN(CC(=O)O)CC(=O)O)CC(=O)O	inactive
CC1(C)S[C@@H]2[C@H](NC(=O)COc3ccccc3)C(=O)N2[C@@H]1C(=O)OCc1cccc2cccnc12	inactive: 4.91%
CCCCCCCCN1[C@@H](CC(C)=O)c2ccc(/C=C/C(C)=O)cc2S1(=O)=O	inactive: 21.3%
CCCNC(=O)NS(=O)(=O)c1ccc(Cl)cc1	inactive
CCN(CC)C(C)CN1c2ccccc2Sc2ccccc21 (stereo unspecified)	inactive
COCCNc1ccnc(-c2ccccc2C(F)(F)F)n1	inactive: -10.5%
CC(=O)O[C@]1(C(C)=O)CC[C@H]2[C@@H]3C=C(Cl)C4=CC(=O)CC[C@]4(C)[C@H]3CC[C@@]21C	inactive: 9.93%
CN1CCN(CCc2ccc(Cl)c(Cl)c2)CC1	inactive: 5.29%
COc1cccc(CCNc2ncnc3sc(C(=O)N4CCN(C)CC4)c(C)c23)c1	inactive: 12.5%
CCC1C(=O)NCCN1Cc1ccc2c(c1)CN(Cc1ccc3c(c1)OCCO3)CCO2 (stereo unspecified)	inactive: 18%

Structure (SMILES)	activity change, negative = inhibition
COc1cc2c(cc1OC)OC(C)(C)C=C2	inactive: -9.62%
CCC1C(=O)NCCN1Cc1ccc2c(c1)CN(Cc1ccc(F)c(OC)c1)CCO2 (stereo unspecified)	inactive: 9.55%
COCCn1c(=O)c(-c2ccc(OC)cc2)nc2cnc(N3CCN(C)CC3)nc21	inactive: 3.47%
CO/N=C(/C(=O)NC1C(=O)N2C(C(=O)O)=C(COC(N)=O)CSC12)c1ccco1 (stereo unspecified)	inactive: 9.11%
CCCS(=O)(=O)NCc1c(C)ncc2c1CCN(C(=O)c1ccc(Cl)cc1)C2	inactive: 3.01%
CC(C)c1ncc([N+](=O)[O-])n1C	inactive: 18.5%
O=c1c(-c2cccs2)nc2cnc(Oc3ccccc3)nc2n1Cc1cccs1	inactive: 10.5%
CCCCNC(=O)[C@@H]1CC=C[C@@H]2CCN(C3CC3)C(=O)[C@@H]21	inactive: -1.58%
COC(=O)c1ccccc1-c1cc(C)cc2c1OC(CNC(=O)C1CCCO1)C2 (stereo unspecified)	inactive: 0.196%
Cc1cnc(CNc2ccnc(-c3ccccc3C(F)(F)F)n2)cn1	inactive: 3.63%
COC(=O)c1ccccc1-c1cc(C)cc2c1OC(CNC(=O)c1occc1C)C2 (stereo unspecified)	inactive: -21%
CN1CCN(c2ncc3nc(-c4cc(F)cc(F)c4)c(=O)n(Cc4cccs4)c3n2)CC1	inactive: 10%
Cc1cnc(CNc2ncncc2-c2cccc(NS(C)(=O)=O)c2)cn1	inactive: 13.3%
COc1cc(=O)n2c(c1C(=O)N(C)Cc1nonc1C)CCN(Cc1cc(C)ccc1C)CC2	inactive: 12.3%
Cn1c(=O)c2c(ncn2CC2OCCO2)n(C)c1=O	inactive: 6.77%
CS(=O)(=O)c1ccc(C(O)C(CO)NC(=O)C(Cl)Cl)cc1 (stereo unspecified)	inactive: 17.1%
COc1ccccc1CCNCc1cc2cccc(C)c2nc1-c1cccs1	inactive: 4.04%
Cc1cnc(CNc2cc(-c3cccc(C#N)c3)ncn2)cn1	inactive: 2.75%
COc1ccccc1CN1CC2(CCN(C(=O)c3cccc(F)c3)CC2)C1	inactive: 13.4%
FC(F)(F)c1ccccc1-c1nc(N2CCOCC2)c2ccccc2n1	inactive: -18.9%
CCCCCCCC(=O)OCC(COC(=O)CCCCCCC)OC(=O)CCCCCCC	inactive: 31.1%
Oc1cc2c(cc1O)C(c1ccccc1)CNCC2 (stereo unspecified)	inactive
COc1ccc2[nH]cc(CCNc3nc(-c4ccccc4CN(C)C)nc4ccccc34)c2c1	inactive: 30.8%
O=C(O)CC/C=C\CC[C@@H]1[C@@H](N2CCCCC2)[C@@H](O)C[C@@H]1OCc1ccc(-c2ccccc2)cc1	inactive: 22.9%
CN(C)c1ncc2nc(-c3cc(F)cc(F)c3)c(=O)n(Cc3cccs3)c2n1	inactive: 78.6%
